For assay [1], the target named is T1, GFP fused to the Import Targeting Domain (ITD, 683-808) of RTEL1 (human) (UniProt Q9NZ71).
T1 sequence: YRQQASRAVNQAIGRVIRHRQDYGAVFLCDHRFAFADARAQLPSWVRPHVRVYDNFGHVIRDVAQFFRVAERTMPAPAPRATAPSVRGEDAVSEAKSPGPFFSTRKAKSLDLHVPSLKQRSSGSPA
Nature of the assay: co-IP; GFP-tagged ITD (683-808) of RTEL1 expressed in cells, endogenous nucleoporins blotted (Figure S5C,D).

Amino acid sequences for entries named in this document (tags omitted). A change or cut given only in a name is not applied to a line headed by its entry. Residues count along the entry.
UniProt P52948, residues 1-880: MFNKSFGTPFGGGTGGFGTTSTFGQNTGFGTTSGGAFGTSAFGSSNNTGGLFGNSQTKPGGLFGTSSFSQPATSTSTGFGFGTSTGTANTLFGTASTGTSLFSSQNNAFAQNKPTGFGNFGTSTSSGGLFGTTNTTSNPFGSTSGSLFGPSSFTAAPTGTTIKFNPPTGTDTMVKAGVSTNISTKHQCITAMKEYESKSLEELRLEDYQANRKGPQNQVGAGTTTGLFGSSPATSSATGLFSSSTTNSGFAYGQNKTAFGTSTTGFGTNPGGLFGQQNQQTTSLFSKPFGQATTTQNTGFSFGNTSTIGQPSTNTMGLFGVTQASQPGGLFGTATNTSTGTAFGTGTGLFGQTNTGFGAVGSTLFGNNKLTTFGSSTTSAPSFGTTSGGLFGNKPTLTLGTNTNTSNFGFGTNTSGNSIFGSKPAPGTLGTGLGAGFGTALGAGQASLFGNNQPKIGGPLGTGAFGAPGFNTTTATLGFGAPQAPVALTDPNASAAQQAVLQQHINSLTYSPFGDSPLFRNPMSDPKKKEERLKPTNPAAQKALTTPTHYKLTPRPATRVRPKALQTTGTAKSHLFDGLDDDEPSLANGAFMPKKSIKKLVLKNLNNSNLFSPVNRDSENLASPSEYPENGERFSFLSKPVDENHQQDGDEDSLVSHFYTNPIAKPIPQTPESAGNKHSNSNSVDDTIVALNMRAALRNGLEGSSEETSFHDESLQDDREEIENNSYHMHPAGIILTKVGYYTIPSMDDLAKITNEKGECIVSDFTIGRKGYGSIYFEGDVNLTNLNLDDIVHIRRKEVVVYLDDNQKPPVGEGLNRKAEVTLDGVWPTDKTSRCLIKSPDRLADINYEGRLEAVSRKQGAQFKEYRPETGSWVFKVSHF
UniProt P49792: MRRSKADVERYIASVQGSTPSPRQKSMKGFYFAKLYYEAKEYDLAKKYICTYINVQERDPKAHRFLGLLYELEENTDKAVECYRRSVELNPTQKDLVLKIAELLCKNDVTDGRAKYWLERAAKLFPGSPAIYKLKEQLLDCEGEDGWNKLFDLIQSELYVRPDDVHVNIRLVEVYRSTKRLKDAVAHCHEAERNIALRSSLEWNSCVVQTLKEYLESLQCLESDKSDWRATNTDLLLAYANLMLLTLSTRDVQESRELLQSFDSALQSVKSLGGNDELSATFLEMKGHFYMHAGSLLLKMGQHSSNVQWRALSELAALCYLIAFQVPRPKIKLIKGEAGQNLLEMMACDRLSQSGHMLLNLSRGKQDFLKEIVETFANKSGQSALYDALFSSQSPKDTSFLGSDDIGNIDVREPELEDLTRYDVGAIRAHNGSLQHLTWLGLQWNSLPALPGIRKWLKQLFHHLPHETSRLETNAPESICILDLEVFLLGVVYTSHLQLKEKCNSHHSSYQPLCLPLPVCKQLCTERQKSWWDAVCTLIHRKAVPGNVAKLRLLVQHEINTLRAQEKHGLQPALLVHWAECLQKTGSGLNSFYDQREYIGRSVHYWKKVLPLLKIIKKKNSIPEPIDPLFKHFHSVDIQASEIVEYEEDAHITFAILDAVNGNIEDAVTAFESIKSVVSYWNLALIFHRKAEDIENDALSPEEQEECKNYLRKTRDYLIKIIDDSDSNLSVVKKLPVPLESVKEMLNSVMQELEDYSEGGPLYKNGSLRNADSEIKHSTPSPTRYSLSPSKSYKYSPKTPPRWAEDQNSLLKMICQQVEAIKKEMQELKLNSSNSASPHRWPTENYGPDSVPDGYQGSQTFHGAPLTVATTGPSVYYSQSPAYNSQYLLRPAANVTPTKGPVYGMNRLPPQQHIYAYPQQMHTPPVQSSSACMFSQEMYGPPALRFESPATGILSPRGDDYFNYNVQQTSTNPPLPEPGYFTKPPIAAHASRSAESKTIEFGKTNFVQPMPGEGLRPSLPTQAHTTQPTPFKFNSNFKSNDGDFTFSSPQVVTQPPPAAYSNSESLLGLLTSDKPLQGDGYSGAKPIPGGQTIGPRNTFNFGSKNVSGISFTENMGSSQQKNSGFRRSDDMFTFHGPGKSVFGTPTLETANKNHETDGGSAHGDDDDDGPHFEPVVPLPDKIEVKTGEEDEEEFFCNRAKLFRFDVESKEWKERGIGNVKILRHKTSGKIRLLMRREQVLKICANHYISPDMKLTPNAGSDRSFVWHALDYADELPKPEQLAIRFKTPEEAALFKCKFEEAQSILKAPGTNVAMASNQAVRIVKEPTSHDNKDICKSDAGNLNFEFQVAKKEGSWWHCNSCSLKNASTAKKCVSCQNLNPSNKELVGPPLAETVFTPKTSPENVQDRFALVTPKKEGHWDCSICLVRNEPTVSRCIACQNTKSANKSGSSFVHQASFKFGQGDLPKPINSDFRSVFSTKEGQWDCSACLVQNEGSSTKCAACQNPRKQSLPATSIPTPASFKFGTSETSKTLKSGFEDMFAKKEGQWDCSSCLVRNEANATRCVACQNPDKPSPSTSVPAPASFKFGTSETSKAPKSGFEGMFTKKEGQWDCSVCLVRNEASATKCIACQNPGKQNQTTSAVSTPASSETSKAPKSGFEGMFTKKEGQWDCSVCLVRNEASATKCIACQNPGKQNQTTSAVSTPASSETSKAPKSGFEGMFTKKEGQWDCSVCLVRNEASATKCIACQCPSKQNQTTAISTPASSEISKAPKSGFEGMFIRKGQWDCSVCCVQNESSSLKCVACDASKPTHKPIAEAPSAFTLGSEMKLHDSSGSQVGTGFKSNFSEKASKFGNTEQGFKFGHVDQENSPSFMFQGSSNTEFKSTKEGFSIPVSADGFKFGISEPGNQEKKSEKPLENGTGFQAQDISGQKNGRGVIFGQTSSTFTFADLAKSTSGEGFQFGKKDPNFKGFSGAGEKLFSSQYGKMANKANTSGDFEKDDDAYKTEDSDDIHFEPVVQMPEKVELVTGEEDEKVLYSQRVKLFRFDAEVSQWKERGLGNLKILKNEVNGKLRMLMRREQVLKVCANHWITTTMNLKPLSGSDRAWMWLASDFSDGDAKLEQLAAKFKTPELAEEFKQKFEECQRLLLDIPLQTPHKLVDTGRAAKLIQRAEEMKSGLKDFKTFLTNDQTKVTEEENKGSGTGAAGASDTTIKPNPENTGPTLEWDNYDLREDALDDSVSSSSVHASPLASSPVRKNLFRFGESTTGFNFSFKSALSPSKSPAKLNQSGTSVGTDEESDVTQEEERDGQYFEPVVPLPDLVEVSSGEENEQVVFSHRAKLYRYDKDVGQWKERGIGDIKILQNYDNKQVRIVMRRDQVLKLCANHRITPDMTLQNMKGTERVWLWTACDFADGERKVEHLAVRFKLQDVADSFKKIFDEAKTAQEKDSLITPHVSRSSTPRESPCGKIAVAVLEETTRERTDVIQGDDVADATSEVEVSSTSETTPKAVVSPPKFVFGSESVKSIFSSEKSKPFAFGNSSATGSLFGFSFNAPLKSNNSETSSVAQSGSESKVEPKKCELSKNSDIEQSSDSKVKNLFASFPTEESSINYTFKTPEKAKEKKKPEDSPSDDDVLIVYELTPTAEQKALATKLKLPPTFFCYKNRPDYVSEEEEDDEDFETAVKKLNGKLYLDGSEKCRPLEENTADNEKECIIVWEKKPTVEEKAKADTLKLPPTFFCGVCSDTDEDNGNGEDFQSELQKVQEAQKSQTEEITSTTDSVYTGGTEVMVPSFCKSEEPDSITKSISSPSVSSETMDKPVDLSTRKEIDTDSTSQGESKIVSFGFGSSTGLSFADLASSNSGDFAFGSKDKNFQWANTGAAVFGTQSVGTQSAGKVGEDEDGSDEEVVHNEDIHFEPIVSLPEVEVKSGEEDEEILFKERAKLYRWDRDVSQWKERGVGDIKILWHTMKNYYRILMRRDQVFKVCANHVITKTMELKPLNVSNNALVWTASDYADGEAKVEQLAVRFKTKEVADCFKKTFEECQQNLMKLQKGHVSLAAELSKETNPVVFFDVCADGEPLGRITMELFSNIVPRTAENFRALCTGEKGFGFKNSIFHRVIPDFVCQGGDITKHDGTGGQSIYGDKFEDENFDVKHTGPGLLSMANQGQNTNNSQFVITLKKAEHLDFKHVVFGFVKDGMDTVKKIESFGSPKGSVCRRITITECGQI
UniProt P49790: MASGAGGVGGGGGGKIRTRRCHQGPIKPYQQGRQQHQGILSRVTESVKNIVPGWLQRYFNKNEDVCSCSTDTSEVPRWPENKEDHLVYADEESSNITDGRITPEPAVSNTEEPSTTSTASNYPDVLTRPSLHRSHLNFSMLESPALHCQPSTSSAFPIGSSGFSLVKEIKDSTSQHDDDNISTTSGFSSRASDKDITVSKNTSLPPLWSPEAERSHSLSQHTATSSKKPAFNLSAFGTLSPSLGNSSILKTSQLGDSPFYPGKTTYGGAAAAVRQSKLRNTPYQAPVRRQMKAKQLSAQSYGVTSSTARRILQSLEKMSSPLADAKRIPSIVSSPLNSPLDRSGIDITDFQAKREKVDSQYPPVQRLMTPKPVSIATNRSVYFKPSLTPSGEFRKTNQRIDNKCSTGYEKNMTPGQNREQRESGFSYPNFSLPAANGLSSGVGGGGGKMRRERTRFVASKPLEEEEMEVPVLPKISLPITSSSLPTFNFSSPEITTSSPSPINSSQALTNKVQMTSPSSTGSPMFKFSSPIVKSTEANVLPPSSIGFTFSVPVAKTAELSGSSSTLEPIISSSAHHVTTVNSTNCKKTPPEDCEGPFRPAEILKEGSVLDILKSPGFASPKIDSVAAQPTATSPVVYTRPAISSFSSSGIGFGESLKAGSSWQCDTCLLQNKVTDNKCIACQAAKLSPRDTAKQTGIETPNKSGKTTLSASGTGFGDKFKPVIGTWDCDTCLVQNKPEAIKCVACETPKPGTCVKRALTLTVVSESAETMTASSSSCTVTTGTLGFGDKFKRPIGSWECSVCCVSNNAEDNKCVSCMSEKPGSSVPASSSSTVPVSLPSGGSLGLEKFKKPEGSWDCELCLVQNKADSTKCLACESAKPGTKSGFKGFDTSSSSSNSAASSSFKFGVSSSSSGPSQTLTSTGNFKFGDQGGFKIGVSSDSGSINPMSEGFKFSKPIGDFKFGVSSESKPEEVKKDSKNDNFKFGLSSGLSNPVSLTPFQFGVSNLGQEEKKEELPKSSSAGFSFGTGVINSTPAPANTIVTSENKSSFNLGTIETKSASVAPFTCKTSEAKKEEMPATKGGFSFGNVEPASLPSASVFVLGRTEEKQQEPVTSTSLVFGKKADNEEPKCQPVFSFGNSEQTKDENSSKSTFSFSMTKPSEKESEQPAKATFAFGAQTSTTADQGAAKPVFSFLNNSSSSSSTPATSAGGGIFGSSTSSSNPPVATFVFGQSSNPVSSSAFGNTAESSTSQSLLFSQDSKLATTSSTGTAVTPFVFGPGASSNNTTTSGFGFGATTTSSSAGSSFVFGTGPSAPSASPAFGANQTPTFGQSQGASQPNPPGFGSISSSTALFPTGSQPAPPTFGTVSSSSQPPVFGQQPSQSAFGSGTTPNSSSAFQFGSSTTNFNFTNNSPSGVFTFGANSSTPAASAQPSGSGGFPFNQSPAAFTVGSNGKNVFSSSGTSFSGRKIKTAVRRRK
UniProt P37198: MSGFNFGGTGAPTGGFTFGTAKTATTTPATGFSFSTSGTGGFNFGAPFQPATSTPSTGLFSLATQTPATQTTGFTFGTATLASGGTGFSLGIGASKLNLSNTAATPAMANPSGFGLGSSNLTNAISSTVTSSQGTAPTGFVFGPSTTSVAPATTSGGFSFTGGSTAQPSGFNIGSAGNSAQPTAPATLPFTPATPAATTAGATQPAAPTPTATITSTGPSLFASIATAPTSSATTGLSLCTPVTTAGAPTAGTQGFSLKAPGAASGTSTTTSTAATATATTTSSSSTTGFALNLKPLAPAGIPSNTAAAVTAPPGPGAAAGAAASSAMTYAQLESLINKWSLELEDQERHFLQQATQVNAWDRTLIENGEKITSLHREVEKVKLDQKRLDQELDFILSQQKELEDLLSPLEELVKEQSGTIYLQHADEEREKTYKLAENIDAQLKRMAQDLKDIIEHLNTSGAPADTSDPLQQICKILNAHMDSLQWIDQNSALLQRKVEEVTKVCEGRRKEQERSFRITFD

Assay [2] deals with T2, C-terminal RTEL1 carrying the ITD (683-1300) (human) (UniProt Q9NZ71).
T2 sequence: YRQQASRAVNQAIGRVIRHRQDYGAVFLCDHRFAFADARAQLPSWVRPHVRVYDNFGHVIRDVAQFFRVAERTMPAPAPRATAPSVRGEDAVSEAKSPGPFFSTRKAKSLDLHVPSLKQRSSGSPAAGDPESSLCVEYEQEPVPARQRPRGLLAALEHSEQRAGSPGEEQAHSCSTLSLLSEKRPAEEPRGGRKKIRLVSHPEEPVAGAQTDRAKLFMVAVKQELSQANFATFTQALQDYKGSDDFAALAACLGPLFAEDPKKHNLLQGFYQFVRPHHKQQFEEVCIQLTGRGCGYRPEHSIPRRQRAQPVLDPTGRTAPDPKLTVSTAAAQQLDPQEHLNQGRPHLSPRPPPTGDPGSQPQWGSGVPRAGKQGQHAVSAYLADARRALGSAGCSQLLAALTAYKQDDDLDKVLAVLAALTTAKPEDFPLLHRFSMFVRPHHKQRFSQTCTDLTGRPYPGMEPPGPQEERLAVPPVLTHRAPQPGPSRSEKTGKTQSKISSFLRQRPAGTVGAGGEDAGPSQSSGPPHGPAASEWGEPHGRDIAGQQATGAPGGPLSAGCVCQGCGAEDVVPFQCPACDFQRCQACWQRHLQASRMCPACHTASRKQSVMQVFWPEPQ
Nature of the assay: co-IP; N-terminal fragment of NUP153 (1-434) together with C-terminal RTEL1 (683-1300) (Figure S5B).

Results are given in words; binding and its absence hold for the method and conditions named. Binding seen in cells or lysates may run through a third protein. Some results given as binding are weak or reduced against the parent protein; the word gives no strength. For some assays here: Where a sequence is shown, tags or fusion partners need not be part of it.

Regarding “NUP98, endogenous (from UniProt P52948 1-880)”, in assay [1], the binding result is listed as “no binding”.

Take “RANBP2, endogenous (from UniProt P49792 1-3224)”: the binding result in assay [1] was “no binding”.

For “GFP-tagged N-terminal fragment of NUP153 (aa 1-434) (from UniProt P49790 1-434) (domain or fragment)”, the binding entry in assay [2] is on record as “binds”.

For the substance “NUP153, endogenous (from UniProt P49790 1-1475)”, in assay [1], the binding result is “binds”.

On to “NUP62, endogenous (from UniProt P37198 1-522)”, for which the binding entry in assay [1] was “binds”.

(Values after PMC10741959.)
